Results from US20180155419A1, “ANTI-MIF ANTIBODIES IN THE TREATMENT OF CANCERS CONTAINING MUTANT TP53 AND/OR MUTANT RAS” (Baxalta GmbH, priority 2015, published 2018).
Positions count from the first letter of the chain named. Entries after “also recorded” stand apart in the source; their conditions may differ.

B1: RAB9: anti-MIF (oxMIF) antibody, light chain SEQ ID NO: 1, heavy chain (IgG4) SEQ ID NO: 5; plasmids DSM 25111 and DSM 25113 (antibody)
heavy: EVQLLESGGGLVQPGGSLRLSCAASGFTFSIYSMNWVRQAPGKGLEWVSSIGSSGGTTYYADSVKGRFTISRDNSKNTLYLQMNSLRAEDTAVYYCAGSQWLYGMDVWGQGTTVTVSSASTKGPSVFPLAPCSRSTSESTAALGCLVKDYFPEPVTVSWNSGALTSGVHTFPAVLQSSGLYSLSSVVTVPSSSLGTKTYTCNVDHKPSNTKVDKRV[not shown - human IgG4 Fc with S228P (EU numbers)]
light: DIQMTQSPSSLSASVGDRVTITCRSSQRIMTYLNWYQQKPGKAPKLLIFVASHSQSGVPSRFRGSGSETDFTLTISGLQPEDSATYYCQQSFWTPLTFGGGTKVEIKRTVAAPSVFIFPPSDEQLKSGTASVVCLLNNFYPREAKVQWKVDNALQSGNSQESVTEQDSKDSTYSLSSTLTLSKADYEKHKVYACEVTHQGLSSPVTKSFNRGEC
modifications: Heavy chain of RAB9; Light chain of RAB9
B2: RAB4: anti-MIF (oxMIF) antibody, light chain SEQ ID NO: 2, heavy chain (IgG4) SEQ ID NO: 6; plasmids DSM 25110 and DSM 25112 (antibody)
heavy: EVQLLESGGGLVQPGGSLRLSCAASGFTFSIYAMDWVRQAPGKGLEWVSGIVPSGGFTKYADSVKGRFTISRDNSKNTLYLQMNSLRAEDTAVYYCARVNVIAVAGTGYYYYGMDVWGQGTTVTVSSASTKGPSVFPLAPCSRSTSESTAALGCLVKDYFPEPVTVSWNSGALTSGVHTFPAVLQSSGLYSLSSVVTVPSSSLGTKTYTCNVDHKPSNTKVDKRV[not shown - human IgG4 Fc with S228P (EU numbers)]
light: DIQMTQSPGTLSLSPGERATLSCRASQGVSSSSLAWYQQKPGQAPRLLIYGTSSRATGIPDRFSGSASGTDFTLTISRLQPEDFAVYYCQQYGRSLTFGGGTKVEIKRTVAAPSVFIFPPSDEQLKSGTASVVCLLNNFYPREAKVQWKVDNALQSGNSQESVTEQDSKDSTYSLSSTLTLSKADYEKHKVYACEVTHQGLSSPVTKSFNRGEC
modifications: Heavy chain of RAB4; Light chain of RAB4
B3: RAB0: anti-MIF (oxMIF) antibody, light chain SEQ ID NO: 3, heavy chain (IgG4) SEQ ID NO: 7; plasmids DSM 25114 and DSM 25115 (antibody)
heavy: B2 heavy with I31W, V52Y, F57R
light: B2 light
modifications: Heavy chain of RAB0; Light chain of RAB0
B4: RAM4: anti-MIF (oxMIF) antibody, heavy chain SEQ ID NO: 13, light chain SEQ ID NO: 14; DSM 25862 and DSM 25861 (antibody)
heavy: EVQLLESGGGLVQPGGSLRLSCAASGFTFSIYAMDWVRQAPGKGLEWVSGIVPSGGFTKYADSVKGRFTISRDNSKNTLYLQMNSLRAEDTAVYYCARVNVIAVAGTGYYYYGMDVWGQGTTVTVSSASTKGPSVFPLAPSSKSTSGGTAALGCLVKDYFPEPVTVSWNSGALTSGVHTFPAVLQSSGLYSLSSVVTVPSSSLGTQTYICNVNHKPSNTKVDKRV[not shown - human IgG1 Fc]
light: B2 light
modifications: RAM4hc; RAM4lc
B5: RAM9: anti-MIF (oxMIF) antibody, heavy chain SEQ ID NO: 11, light chain SEQ ID NO: 12; DSM 25860 and DSM 25859 (antibody)
heavy: EVQLLESGGGLVQPGGSLRLSCAASGFTFSIYSMNWVRQAPGKGLEWVSSIGSSGGTTYYADSVKGRFTISRDNSKNTLYLQMNSLRAEDTAVYYCAGSQWLYGMDVWGQGTTVTVSSASTKGPSVFPLAPSSKSTSGGTAALGCLVKDYFPEPVTVSWNSGALTSGVHTFPAVLQSSGLYSLSSVVTVPSSSLGTQTYICNVNHKPSNTKVDKRV[not shown - human IgG1 Fc]
light: B1 light
modifications: RAM9hc; RAM9lc

How the values were obtained:
oxMIF = target: T1, oxMIF (Homo sapiens, UniProt P14174); test: Differential binding of anti-MIF antibodies to oxMIF (ELISA or Biacore surface plasmon resonance); details: for binding to oxMIF: oxMIF (oxidized MIF); for binding to redox-modulated or Proclin300/crosslinker-treated recombinant MIF: recombinant MIF (human, murine, rat, CHO, monkey), Cys/Glu-mediated mild oxidation or Proclin300 or protein crosslinkers
T1 sequence (P14174 1-115): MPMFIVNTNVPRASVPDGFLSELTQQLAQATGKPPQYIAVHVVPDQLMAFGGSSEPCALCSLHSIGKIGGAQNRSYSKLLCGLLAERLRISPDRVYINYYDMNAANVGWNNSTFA
Protocol: (§1) The anti-oxMIF antibodies used in this invention are able to discriminate between ox and red MIF, which are generated by mild oxidation or reduction, respectively. The anti-oxMIF antibodies are useful to specifically detect oxMIF. Discrimination between these conformers is assessed by ELISA or surface plasmon resonance. Both techniques can be performed as well known to a person skilled in the art and as described below.
(§2) The antibodies were coated on a CM5 (=carboxymethylated dextran) chip and recombinant MIF protein, pre-incubated with 0.2% Proclin®300, were injected. (Proclin®300 consists of oxidative isothiazolones that stabilize the oxMIF structure).
(§3) A preferred method for the determination of binding is surface plasmon resonance of an antibody to e.g. rec. […] “Binding” and “specific binding” is used interchangeably here to denote the above.

redMIF = target: T2, redMIF (Homo sapiens, UniProt P14174); test: Differential binding of anti-MIF antibodies to redMIF / unmodified recombinant MIF (Biacore surface plasmon resonance); details: for binding of recombinant MIF proteins to coated antibody (Biacore): native HBS-EP buffer without addition of ProClin300; for binding to redMIF: reduced / unmodified MIF
T2 sequence (P14174 1-115): T1 sequence (P14174 1-115)
Protocol: as §1, §2, §3

ERK1/2 = test: Phosphorylation of ERK1/2 in starved PC3 cells (western blot); assay type: cell-based, human; details: starved PC3 cells (K-ras G12V, TP53 deletion), 10% FCS, 10 nM recombinant MIF, 100 nM antibody; versus untreated or control antibody
Protocol: (§4) FIG. 1: Anti-oxMIF inhibits phosphorylation of ERK and AKT in vitro. […] Cell lysates were separated by SDS-PAGE and blotted on nitrocellulose membranes, and the phosphorylated forms of ERK1/2 (FIG. 1A) or AKT (FIG. 1B) were visualized with phosphor-specific antisera. The total levels of the enzymes were determined by using antisera that recognized all forms of the enzymes and were visualized as a loading control.
(§5) Cell lysates were separated by SDS-PAGE and blotted on nitrocellulose membranes, and the phosphorylated forms of ERK1/2 (FIG. 1A) or AKT (FIG. 1B) were visualized with phosphor-specific antisera. The total levels of the enzymes were determined by using antisera that recognized all forms of the enzymes and were visualized as a loading control. […] Mutant K-ras protein activates ERK1/2 and AKT through a cascade that leads to ERK1/2 and AKT phosphorylation.

AKT = test: Phosphorylation of AKT in starved PC3 cells (western blot); assay type: cell-based, human; details: starved PC3 cells (K-ras G12V, TP53 deletion), 10% FCS, 10 nM recombinant MIF, 100 nM antibody; versus untreated or control antibody
Protocol: as §4, §5

II-8 = test: PC3 prostate cancer xenograft, intratumoral II-8 by multiplex immunoassay; assay type: in vivo, Mf1 nude mice; details: 5 or 15 mg/kg intraperitoneally every other day; tumor lysates
Protocol: (§6) FIG. 3: Tumor volume (FIG. 3D) and intratumoral levels of the cytokines, II-6 (FIG. 3B), II-8 (FIG. 3A) and GRO-alpha (FIG. 3C) were analyzed for tumors from a PC3 prostate cancer xenograft in vivo model after treatment with the indicated antibodies. The data shown represent the mean.
(§7) Human prostate adenocarcinoma PC3 cells (containing a mutant KRAS gene encoding a K-ras G12V mutation, and containing a deletion mutation in the TP53 gene) were harvested from exponentially growing cultures, mixed with growth factor-depleted matrigel and inoculated subcutaneously into the right flank of Mf1 nude mice (2×10^6 cells in 0.25 mL Matrigel/mouse, n=10/group). On the next day the antibody treatment was started (5 or 15 mg/kg intraperitoneally every other day). On day 7 after cell injection, the size of tumor xenograft was started to be measured and volume was calculated using the formula V=0.5 x a x b^2 (where “a” is the longest diameter; “b” is the shortest diameter. After termination of the experiment, tumors were excised, flash frozen and homogenized in lysis buffer. Cleared lysates were analyzed by multiplex immunoassays.

[1] = test system: IGROV-1 human ovarian cancer cells; test: Xenograft model of ovarian cancer, IGROV-1 luciferase cells, bioluminescence; assay type: in vivo, Nude mice; details: 60 mg/kg i.p. every other day from week 4; measured in 4th, 5th and 6th week; IGROV-1 (KRAS wild-type, p53 Y126C)
Protocol: FIG. 2: Tumor measurements in a xenograft model of ovarian cancer based on inhibition of IGROV-1 cells stably expressing the luciferase reporter gene. IGROV-1 human ovarian cancer cells (containing a wild-type KRAS gene, and containing a mutant TP53 gene encoding a p53 Y126C mutation) stably expressing the luciferase reporter gene were implanted on day 0. […] The treatment was carried out every other day. In the 4th, 5th and 6th week after injection of the tumor cells, the tumors were assessed by measuring luciferase activity (total flux in photons per second, p/s) (FIG. 2B).
In order to further confirm the effects of anti-MIF antibodies in the treatment of cancers containing mutations of TP53, a xenograft model of ovarian cancer based on inhibition of IGROV-1 human ovarian cancer cells (containing a wild-type KRAS gene, and containing a mutant TP53 gene encoding a p53 Y126C mutation) stably expressing the luciferase reporter gene was used. Nude mice were injected i.p. with 1×10^7 IGROV-1 luciferase cells. Prior to start of the treatment protocol, animals were assessed for equal tumor burden and randomized into the respective treatment arms.
Measuring luciferase activity: At different time points following cancer cells injection or antibody treatment, tumor growth and spread were monitored by Bioluminescent Assay. […]

[2] = test system: Human prostate adenocarcinoma PC3 cells; test: PC3 prostate cancer xenograft, tumor volume; assay type: in vivo, Mf1 nude mice; details: 5 or 15 mg/kg intraperitoneally every other day; compared to the control antibody
Protocol: as §6, §7

GRO-alpha = test: PC3 prostate cancer xenograft, intratumoral GRO-alpha by multiplex immunoassay; assay type: in vivo, Mf1 nude mice; details: 5 or 15 mg/kg intraperitoneally every other day; tumor lysates
Protocol: as §6, §7

II-6 = test: PC3 prostate cancer xenograft, intratumoral II-6 by multiplex immunoassay; assay type: in vivo, Mf1 nude mice; details: 5 or 15 mg/kg intraperitoneally every other day; tumor lysates
Protocol: as §6, §7

Molecule	binding to oxMIF (oxMIF)	binding to redox-modulated or Proclin300/crosslinker-treated recombinant MIF (oxMIF)	binding of recombinant MIF proteins to coated antibody (Biacore) (redMIF)	binding to redMIF (redMIF)	phosphorylation of ERK1/2 (ERK1/2)	phosphorylation of AKT (AKT)	intratumoral level of II-8 (II-8)	luciferase activity (total flux) of tumors [1]	tumor volume [2]	intratumoral level of GRO-alpha (GRO-alpha)	intratumoral level of II-6 (II-6)
B1	specifically bind to oxMIF	leads to the binding	none of the recombinant MIF proteins bound	do not bind to unmodified MIF in its reduced state; also recorded: incapable of binding to redMIF	–	–	–	–	–	–	–
B2	specifically bind to oxMIF	leads to the binding	–	do not bind to unmodified MIF in its reduced state; also recorded: incapable of binding to redMIF	–	–	–	–	–	–	–
B3	specifically bind to oxMIF	leads to the binding	none of the recombinant MIF proteins bound	do not bind to unmodified MIF in its reduced state; also recorded: incapable of binding to redMIF	–	–	–	–	–	–	–
B4	specifically bind to oxMIF	–	–	incapable of binding to redMIF	reduced the phosphorylation	reduced the phosphorylation	–	–	–	–	–
B5	specifically bind to oxMIF	–	–	incapable of binding to redMIF	reduced the phosphorylation	reduced the phosphorylation	reduced	reduction in luciferase activity	decreased	reduced	reduced
